Results: patent US11618753B2 (priority 2018, dated 2023)
Where a name gives a salt, the structure may show the parent alone.

System: MLKL phosphorylation, HT29-L23 human colorectal adenocarcinoma cells
Test: cells
Conditions: read-out: pMLKL HCS Cell Assay (IC50, uM)

In order of rising IC50:
1. [2H]C([2H])([2H])Oc1ncc(-c2cc(CN3CC(F)(F)C3)c3c(N)ncnn23)cc1C(=O)N[C@@H]1CN(C(=O)C2CC(F)(F)C2)C[C@@H]1F [Example 1274, 5-{4-amino-5-[(3,3-difluoroazetidin-1-yl)methyl]pyrrolo[2,1-f][1,2,4]triazin-7-yl}-N-[(3R,4S)-1-(3,3-difluorocyclobutanecarbonyl)-4-fluoropyrrolidin-3-yl]-2-(methoxy-d3)nicotinamide]  0.00042 µM
2. COc1ncc(-c2cc(C(C)N3CCCCC3)c3c(N)ncnn23)cc1C(=O)NC1CN(C(=O)C(C)(O)C(F)(F)F)C[C@@H]1F (stereo in doubt) [Example 1591, 5-{4-amino-5-[1-(piperidin-1-yl)ethyl]pyrrolo[2,1-f][1,2,4]triazin-7-yl}-N-[(3R,4S)-4-fluoro-1-[(2S)-3,3,3-trifluoro-2-hydroxy-2-methylpropanoyl]pyrrolidin-3-yl]-2-methoxypyridine-3-carboxamide]  0.0011 µM
3. Cc1ccc(-c2cc(C(F)(F)F)c3c(N)ncnn23)c(F)c1C(=O)N[C@@H]1CN(C(=O)CC(C)C(F)(F)F)C[C@@H]1F (stereo partly drawn) [Example 752, 3-[4-amino-5-(trifluoromethyl)pyrrolo[2,1-f][1,2,4]triazin-7-yl]-2-fluoro-N-[(3R,4S)-4-fluoro-1-(4,4,4-trifluoro-3-methylbutanoyl)pyrrolidin-3-yl]-6-methylbenzamide]  0.0012 µM
4. Nc1ncnn2c(-c3cccc(C(=O)N[C@@H]4CN(C(=O)CC(F)(F)F)C[C@@H]4F)c3)cc(CN3CC(F)(F)C3)c12 [Example 1169, 3-{4-amino-5-[(3,3-difluoroazetidin-1-yl)methyl]pyrrolo[2,1-f][1,2,4]triazin-7-yl}-N-[(3R,4S)-4-fluoro-1-(3,3,3-trifluoropropanoyl)pyrrolidin-3-yl]benzamide]  0.0018 µM
5. Nc1ncnn2c(-c3ccc(Cl)c(C(=O)N[C@@H]4CN(C(=O)CC(F)(F)F)C[C@@H]4F)c3)cc(CN3CCC(F)(F)CC3)c12 [Example 1145, 5-{4-amino-5-[(4,4-difluoropiperidin-1-yl)methyl]pyrrolo[2,1-f][1,2,4]triazin-7-yl}-2-chloro-N-[(3R,4S)-4-fluoro-1-(3,3,3-trifluoropropanoyl)pyrrolidin-3-yl]benzamide]  0.0019 µM
6. COc1cc(F)c(-c2cc(C(F)(F)F)c3c(N)ncnn23)cc1C(=O)N[C@@H]1CN(C(=O)[C@@](C)(O)C(F)(F)F)C[C@@H]1F [Example 867, 5-[4-amino-5-(trifluoromethyl)pyrrolo[2,1-f][1,2,4]triazin-7-yl]-4-fluoro-N-[(3R,4S)-4-fluoro-1-[(2R)-3,3,3-trifluoro-2-hydroxy-2-methylpropanoyl]pyrrolidin-3-yl]-2-methoxybenzamide]  0.0023 µM
7. Cc1ccc(-c2cc(C(F)(F)F)c3c(N)ncnn23)cc1C(=O)Nc1ccn(Cc2ccccc2)n1 [Example 1793, 5-(4-amino-5-(trifluoromethyl)pyrrolo[2,1-f][1,2,4]triazin-7-yl)-N-(1-benzyl-1H-pyrazol-3-yl)-2-methylbenzamide]  0.0029 µM
8. COc1cc(F)c(-c2cc(C(F)(F)F)c3c(N)ncnn23)cc1C(=O)N[C@@H]1CN(C(=O)CC(C(F)(F)F)C(F)(F)F)C[C@@H]1F [Example 876, 5-[4-amino-5-(trifluoromethyl)pyrrolo[2,1-f][1,2,4]triazin-7-yl]-4-fluoro-N-[(3R,4S)-4-fluoro-1-[4,4,4-trifluoro-3-(trifluoromethyl)butanoyl]pyrrolidin-3-yl]-2-methoxybenzamide]  0.0034 µM
9. COc1ncc(-c2cc(C(F)(F)F)c3c(N)ncnn23)cc1C(=O)N[C@@H]1CN(C(=O)OC2CC(F)(F)C2(F)F)C[C@@H]1F (stereo partly drawn) [Example 1417, 2,2,3,3-Tetrafluorocyclobutyl (3R,4S)-3-(5-(4-amino-5-(trifluoromethyl)pyrrolo[2,1-f][1,2,4]triazin-7-yl)-2-methoxynicotinamido)-4-fluoropyrrolidine-1-carboxylate]  0.0049 µM
10. CC(CC(=O)N1C[C@H](F)[C@H](NC(=O)c2cc(-c3cc(C(F)(F)F)c4c(N)ncnn34)c(F)cc2Cl)C1)C(F)(F)F (stereo partly drawn) [Example 883, 5-[4-amino-5-(trifluoromethyl)pyrrolo[2,1-f][1,2,4]triazin-7-yl]-2-chloro-4-fluoro-N-[(3R,4S)-4-fluoro-1-(4,4,4-trifluoro-3-methylbutanoyl)pyrrolidin-3-yl]benzamide]  0.0052 µM
11. COc1ncc(-c2cc(C(F)(F)F)c3c(N)ncnn23)cc1C(=O)NC1CN(C(C)c2ccc(F)c(F)c2)C[C@@H]1F (single isomer, unassigned) [Example 460]  0.012 µM
12. COc1ncc(-c2cc(CNCCO)c3c(N)ncnn23)cc1C(=O)NCC[C@H](O)c1ccc(Cl)cc1 [Example 57, (S)-5-(4-amino-5-(((2-hydroxyethyl)amino)methyl)pyrrolo[2,1-f][1,2,4]triazin-7-yl)-N-(3-(4-chlorophenyl)-3-hydroxypropyl)-2-methoxynicotinamide]  0.014 µM
13. Nc1ncnn2c(-c3ccc(Cl)c(C(=O)N[C@@H]4CN(C(=O)c5c(F)cncc5F)C[C@@H]4F)c3)cc(C(F)(F)F)c12 [Example 955, 5-[4-amino-5-(trifluoromethyl)pyrrolo[2,1-f][1,2,4]triazin-7-yl]-2-chloro-N-[(3R,4S)-1-(3,5-difluoropyridine-4-carbonyl)-4-fluoropyrrolidin-3-yl]benzamide]  0.022 µM
14. Nc1ncnn2c(-c3cncc(C(=O)NCCC(O)c4ccc(F)cc4)c3)cc(C(F)(F)F)c12 (centres unmarked) [Example 18, 5-[4-amino-5-(trifluoromethyl)pyrrolo[2,1-f][1,2,4]triazin-7-yl]-N-[3-(4-fluorophenyl)-3-hydroxypropyl]pyridine-3-carboxamide]  0.024 µM
15. COc1ncc(-c2cc(C(F)(F)F)c3c(N)ncnn23)cc1C(=O)N[C@@H]1CN(C(=O)C(C)(C)F)C[C@@H]1F [Example 347, 5-[4-amino-5-(trifluoromethyl)pyrrolo [2,1-f][1,2,4]triazin-7-yl]-N-[(3R,4S)-4-fluoro-1-(2-fluoro-2-methylpropanoyl)pyrrolidin-3-yl]-2-methoxypyridine-3-carboxamide, TFA]  0.026 µM
16. COc1ncc(-c2cc(C(F)(F)F)c3c(N)ncnn23)cc1C(=O)N[C@@H]1CN(C2CCCC2C)C[C@@H]1F (stereo partly drawn) [Example 1363, 5-[4-amino-5-(trifluoromethyl)-pyrrolo[2,1-f][1,2,4]triazin-7-yl]-N-[(3R,4S)-4-fluoro-1-(2-methylcyclopentyl)-pyrrolidin-3-yl]-2-methoxy-pyridine-3-carboxamide]  0.026 µM
17. COc1ncc(-c2cc(C(F)(F)F)c3c(N)ncnn23)cc1C(=O)N[C@@H]1CN(C(=O)C(C)(C)CF)C[C@@H]1F [Example 314, 5-[4-amino-5-(trifluoromethyl)pyrrolo[2,1-f][1,2,4]triazin-7-yl]-N-[(3R,4S)-4-fluoro-1-(3-fluoro-2,2-dimethylpropanoyl)pyrrolidin-3-yl]-2-methoxypyridine-3-carboxamide]  0.029 µM
18. COc1ncc(-c2cc(C(F)(F)F)c3c(N)ncnn23)cc1C(=O)N(C)[C@@H]1CN(C(=O)[C@@](C)(O)C(F)(F)F)C[C@@H]1F [Example 1346, 5-(4-amino-5-(trifluoromethyl)pyrrolo[2,1-f][1,2,4]triazin-7-yl)-N-((3R,4S)-4-fluoro-1-((R)-3,3,3-trifluoro-2-hydroxy-2-methylpropanoyl)pyrrolidin-3-yl)-2-methoxy-N-methylnicotinamide]  0.035 µM
19. Cc1cc(C(=O)N2C[C@H](F)[C@H](NC(=O)c3cc(-c4cc(C(F)(F)F)c5c(N)ncnn45)c(F)cc3C)C2)ccn1 [Example 837, 5-[4-amino-5-(trifluoromethyl)pyrrolo[2,1-f][1,2,4]triazin-7-yl]-4-fluoro-N-[(3R,4S)-4-fluoro-1-(2-methylpyridine-4-carbonyl)pyrrolidin-3-yl]-2-methylbenzamide]  0.038 µM
20. Cc1ccc(-c2cc(C(F)(F)F)c3c(N)ncnn23)c(F)c1C(=O)N[C@@H]1CN(C(=O)CC(F)(F)F)C[C@@H]1F [Example 760, 3-[4-amino-5-(trifluoromethyl)pyrrolo[2,1-f][1,2,4]triazin-7-yl]-2-fluoro-N-[(3R,4S)-4-fluoro-1-(3,3,3-trifluoropropanoyl)pyrrolidin-3-yl]-6-methylbenzamide]  0.042 µM
21. COc1ncc(-c2cc(C(F)(F)F)c3c(N)ncnn23)cc1C(=O)NC1CN(CC2CC(F)(F)C2)CC1F (racemic) [Example 185]  0.055 µM
22. COc1ncc(-c2cc(C(F)(F)F)c3c(N)ncnn23)cc1C(=O)N[C@@H]1CN(S(=O)(=O)c2ccccc2C#N)C[C@@H]1F [Example 502, 5-[4-amino-5-(trifluoromethyl)pyrrolo[2,1-f][1,2,4]triazin-7-yl]-N-[(3R,4S)-1-(2-cyanobenzenesulfonyl)-4-fluoropyrrolidin-3-yl]-2-methoxypyridine-3-carboxamide]  0.058 µM
23. COc1ncc(-c2cc(CN3CCC(C(F)(F)F)CC3)c3c(N)ncnn23)cc1C(=O)N[C@@H]1CN(C(=O)C(C)(C)F)C[C@@H]1F [Example 1628, 5-(4-amino-5-{[4-(trifluoromethyl)piperidin-1-yl]methyl}pyrrolo[2,1-f][1,2,4]triazin-7-yl)-N-[(3R,4S)-4-fluoro-1-(2-fluoro-2-methylpropanoyl)pyrrolidin-3-yl]-2-methoxypyridine-3-carboxamide]  0.061 µM
24. CC(CCNC(=O)c1cccc(-c2ccc3c(N)ncnn23)c1)c1ccccc1 (centres unmarked) [Example 1, 3-{4-aminopyrrolo[2,1-f][1,2,4]triazin-7-yl}-N-(3-phenylbutyl)benzamide]  0.077 µM
25. Nc1ncnn2c(-c3ccc(OCC(F)(F)F)c(C(=O)N[C@@H]4CN(C(=O)C5CCC(F)(F)C5)C[C@@H]4F)c3)cc(C(F)(F)F)c12 (stereo partly drawn) [Example 1064, 5-[4-amino-5-(trifluoromethyl)pyrrolo[2,1-f][1,2,4]triazin-7-yl]-N-[(3R,4S)-1-(3,3-difluorocyclopentanecarbonyl)-4-fluoropyrrolidin-3-yl]-2-(2,2,2-trifluoroethoxy)benzamide]  0.103 µM
26. COc1ncc(-c2cc(C(F)(F)F)c3c(N)ncnn23)cc1C(=O)N[C@@H]1CN(C(=O)C2COC2)C[C@@H]1F [Example 346, 5-[4-amino-5-(trifluoromethyl)pyrrolo[2,1-f][1,2,4]triazin-7-yl]-N-[(3R,4S)-4-fluoro-1-(oxetane-3-carbonyl)pyrrolidin-3-yl]-2-methoxypyridine-3-carboxamide]  0.239 µM
